Test results from PubChem BioAssay AID504332 (National Center for Advancing Translational Sciences (NCATS), 2011).
The whole screen tested about 350,000 compounds, of which about 31,000 (8.9%) were called active. The shares of active, inactive and inconclusive entries below differ from those in the screen. Calls come from the whole dose curve; as a rule, active = well fitted inhibition curve with a large enough effect; inconclusive = small, poorly fitted or top-dose-only effect; inactive = no such curve, though single readings can be large or run the other way. A potency beside an inconclusive call is a rough fit, not a confirmed value.

These compounds were tested against Histone-lysine N-methyltransferase EHMT2 (Homo sapiens) (UniProt Q96KQ7) (assay: qHTS Assay for Inhibitors of Histone Lysine Methyltransferase G9a). Settings: G9a H3K9 monomethylation, AlphaScreen, 2 h; activity, negative = inhibition: at 59 µM (top of the series) unless noted.
Method in brief: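 Compounds were preincubated with 20 nM G9a for 15 min, after which biotinylated H3K9 peptide (500 nM) and SAM (20 uM) started a 2 h room-temperature reaction. Monomethylated product was quantified by antibody-based AlphaScreen chemiluminescence.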
% is set by controls: 0 for no effect and ±100 for the full control effect; potency is the fitted concentration of half-maximal effect; tags give direction and shape of the fitted curve.
Note: nearly all actives have a fitted effect of over 75% in size.

UniProt Q96KQ7, sequence (Q96KQ7 whole entry, looked up): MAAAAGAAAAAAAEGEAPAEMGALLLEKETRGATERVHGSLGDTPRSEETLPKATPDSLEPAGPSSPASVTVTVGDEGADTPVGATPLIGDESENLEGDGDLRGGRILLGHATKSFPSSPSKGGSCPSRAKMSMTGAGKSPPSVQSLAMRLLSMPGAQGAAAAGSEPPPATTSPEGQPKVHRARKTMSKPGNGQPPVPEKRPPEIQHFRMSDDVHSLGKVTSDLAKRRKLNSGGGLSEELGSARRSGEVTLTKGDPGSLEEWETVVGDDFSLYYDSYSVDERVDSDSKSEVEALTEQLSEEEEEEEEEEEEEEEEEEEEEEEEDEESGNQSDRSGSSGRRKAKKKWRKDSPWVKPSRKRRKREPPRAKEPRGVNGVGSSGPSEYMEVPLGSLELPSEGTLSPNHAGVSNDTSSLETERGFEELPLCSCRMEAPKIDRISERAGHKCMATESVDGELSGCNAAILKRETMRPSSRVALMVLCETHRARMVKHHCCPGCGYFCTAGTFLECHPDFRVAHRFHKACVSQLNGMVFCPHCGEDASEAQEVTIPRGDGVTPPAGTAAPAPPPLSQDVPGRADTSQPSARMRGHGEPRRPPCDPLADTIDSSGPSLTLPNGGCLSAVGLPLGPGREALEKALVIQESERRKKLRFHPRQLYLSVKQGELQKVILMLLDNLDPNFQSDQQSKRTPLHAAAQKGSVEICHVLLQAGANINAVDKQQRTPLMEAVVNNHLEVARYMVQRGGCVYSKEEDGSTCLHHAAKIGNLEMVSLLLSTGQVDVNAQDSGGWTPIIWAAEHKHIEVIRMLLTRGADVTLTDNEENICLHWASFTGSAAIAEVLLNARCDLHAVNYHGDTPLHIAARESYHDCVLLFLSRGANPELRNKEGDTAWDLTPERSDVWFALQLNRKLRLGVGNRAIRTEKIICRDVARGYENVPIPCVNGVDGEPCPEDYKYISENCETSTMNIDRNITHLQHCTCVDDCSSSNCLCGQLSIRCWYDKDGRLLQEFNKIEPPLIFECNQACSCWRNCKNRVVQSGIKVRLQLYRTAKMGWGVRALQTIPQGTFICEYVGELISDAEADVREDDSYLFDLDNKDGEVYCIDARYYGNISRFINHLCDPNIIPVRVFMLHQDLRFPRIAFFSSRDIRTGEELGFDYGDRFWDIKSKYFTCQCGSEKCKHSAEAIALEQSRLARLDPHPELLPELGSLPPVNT

SMILES	activity, negative = inhibition	Potency
Cc1cc(NC(=O)N2CCC(CN3CCCCCC3)CC2)ccc1Br	inactive: -32.7%	–
CS(=O)(=O)c1ccc(-c2nnc(NC(=O)c3cccc(N4C(=O)CCC4=O)c3)o2)cc1	–	active: 15.8 µM
O=C(CSc1nc2c([nH]c3ccccc32)c(=O)n1-c1ccccc1)Nc1ccc2c(c1)OCO2	inactive: -1.16%	–
CC1CN(C(=O)c2cc3cc(Br)ccc3[nH]2)CC(C)O1 (stereo unspecified)	–	inconclusive: 50.1 µM [inhibitor, partial curve, poor fit]
O=C(CCN1CCCCC1)Nc1cccc(Cl)c1	–	inconclusive: 39.8 µM [inhibitor, single point]
COc1ccc(C)cc1-n1c(-c2ccc(Cl)cc2)cc2c1CC(C)(C)CC2=O	–	inconclusive: 7.94 µM [inhibitor, full curve]
COc1ccc(C(=O)NC(=S)Nc2cc3oc4ccccc4c3cc2OC)cc1	–	inconclusive: 20 µM [inhibitor, partial curve, poor fit]
COc1ccc(N2CCN(C(CNS(=O)(=O)c3ccc(OC)c(C)c3)c3ccco3)CC2)cc1 (stereo unspecified)	–	active: 7.94 µM
COc1ccccc1C(=O)COC(=O)C(CCSC)NC(=O)COc1ccccc1 (stereo unspecified)	–	inconclusive: 89.1 µM [inhibitor, partial curve, poor fit]
O=S(=O)(c1ccc(Cl)cc1)c1nnn2c1nc(NC1CCCC1)c1sccc12	inactive: 1.91%	–
COc1cccc(C(=O)/C=C/Nc2ccc(S(=O)(=O)Nc3nc(C)cc(C)n3)cc2)c1	inactive: 8.8%	–
O=C(O)c1cnn2c1C(=O)N(Cc1cccs1)CC2	–	active: 39.8 µM
COc1ccc(CCNC(=O)CCc2cn(Cc3ccccc3Cl)c3ccccc23)c(OC)c1	–	inconclusive: 8.91 µM [inhibitor, partial curve, poor fit]
CC(C)Oc1ccc(CNCC2(O)CCOC(C)(C)C2)cc1 (stereo unspecified)	–	active: 8.91 µM
CCOC(=O)C1(CC2CCCCO2)CCN(S(=O)(=O)c2cc(C)cs2)CC1 (stereo unspecified)	–	inconclusive: 89.1 µM [inhibitor, partial curve, poor fit]
CCOc1ccc(NC(=O)c2c(C)oc3nc(C)nc(N4CCCC4)c23)cc1	–	inconclusive: 17.8 µM [inhibitor, partial curve, poor fit]
Cn1ccsc1=NC(=O)c1ccc([N+](=O)[O-])o1	–	inconclusive: 6.31 µM [inhibitor, full curve]
Cn1cc(S(=O)(=O)N2CCN(Cc3ccccc3)CC2)c(=O)n(C)c1=O	–	inconclusive: 50.1 µM [inhibitor, partial curve]
COc1ccc(-n2c(=O)c(C)nc3cncnc32)cc1	inactive: -7.47% [at 12.7 µM]	–
CCOc1ccc(NC(=O)c2cc([N+](=O)[O-])ccc2N2CCOCC2)cc1	–	inconclusive: 50.1 µM [inhibitor, partial curve]
COc1ccccc1N(C)S(=O)(=O)c1ccc(C(=O)Nc2nnc(C)s2)cc1	–	inconclusive: 44.7 µM [inhibitor, partial curve, poor fit]
Cc1cc(C)c(COc2ccc(/C=N/n3c(C)n[nH]c3=S)cc2)c(C)c1	–	inconclusive: 22.4 µM [inhibitor, single point]
COC(=O)c1ccc(NC(=O)Cc2ccc(C)cc2)cc1	inactive: -6.25%	–

SMILES	activity, negative = inhibition	Potency
COCCCNC1CS(=O)(=O)CC1O (stereo unspecified)	inactive: 0.644% [at 12.7 µM]	–
O=C(OCC(=O)N1c2ccccc2Sc2ccccc21)c1ccc[n+]([O-])c1	inactive: -8.42% [at 102 µM]	–
CCN(CC(=O)Nc1ccc(NC(C)=O)cc1)C(=O)c1ccc(N2CCCC2)c([N+](=O)[O-])c1	–	inconclusive: 79.4 µM [inhibitor, partial curve, poor fit]
O=C(Nc1ccccc1O)C(c1ccccc1)c1ccccc1	inactive: -10.3% [at 2.33 µM]	–
O=C(CN1CCCCCC1)NCCc1ccc(F)cc1	–	active: 8.91 µM
CCOC(=O)C1=C(N)OC(C)=C(C#N)C1c1ccco1 (stereo unspecified)	inactive: -10.4%	–
CC(C)(C)c1ccc(C(=O)NCCNC(=O)c2ccco2)cc1	inactive: 23.4% [at 102 µM]	–
COc1ccc(N2CCN(C(=O)CN(c3ccc(Br)cc3)S(C)(=O)=O)CC2)cc1	inconclusive: -83.9% [inhibitor]	–
CCN(Cc1ccccc1)C(=O)c1oc2ccc(S(=O)(=O)N3CCOCC3)cc2c1C	inactive: 19.9%	–
CCOC(=O)NC(Nc1ccc(C)cn1)(C(F)(F)F)C(F)(F)F	–	inconclusive: 22.4 µM [inhibitor, partial curve, poor fit]
O=c1c2ccccc2ncn1-c1ccc([N+](=O)[O-])cc1Cl	inactive: -4.18% [at 102 µM]	–
CCSc1nsc(SCC)c1C(N)=O	–	inconclusive: 79.4 µM [inhibitor, single point]
COc1ccc(NC(=O)CC(NC(C)c2ccccc2)C(=O)O)cc1 (stereo unspecified)	–	inconclusive: 35.5 µM [inhibitor, partial curve]
O=C(NCc1ccccc1)c1ccc(NC(=O)C2CCCO2)cc1 (stereo unspecified)	–	active: 20 µM
Cc1ccc(C)c(S(=O)(=O)Nc2ccc(O)c3ccccc23)c1	–	active: 28.2 µM
O=C(Nc1ccccc1)c1cccc(N2CCCC2=O)c1	–	inconclusive: 3.98 µM [inhibitor, full curve, poor fit]
COc1ccc(CNC(=O)Cn2c(=O)oc3cc(S(=O)(=O)NCc4ccccc4)ccc32)cc1	inactive: 12.7%	–
CC(=O)Oc1ccc(N(C(C)=O)S(=O)(=O)c2cccs2)cc1	–	inconclusive: 44.7 µM [inhibitor, partial curve, poor fit]
O=[N+]([O-])c1ccc(O)c(Nc2ncnc3ccccc23)c1	inconclusive: -62.1% [inhibitor] [at 0.501 µM]	–
CC1(C)Oc2ccc3ccc(=O)oc3c2-c2cn[nH]c21	–	inconclusive: 1.12 µM [inhibitor, full curve, poor fit]
CCOC(=O)c1c(C)[nH]c2c1cc(O)c1ccccc12	–	inconclusive: 56.2 µM [inhibitor, partial curve, poor fit]
N#Cc1ccccc1OCC(=O)N1CCN(S(=O)(=O)c2ccc(Cl)cc2)CC1	inactive: 16.3% [at 2.33 µM]	–
CCc1cccc(NS(=O)(=O)c2ccc3c(c2)NC(=O)CO3)c1	–	inconclusive: 31.6 µM [inhibitor, single point]
